# Assay results published in publication PMC4336329 (PLoS ONE, 2015).
# Screen size: about 310,000 compounds; about 2,200 (0.71%) showed an effect of 50% or more. The effect is printed as a negative number. The list shows a part of the results.
# Target: human ether-à-go-go-related gene (hERG) potassium channel (human, UniProt Q12809)
# Assay: primary screen, population patch clamp on CHO cells stably expressing hERG
# human ether-à-go-go-related gene (hERG) potassium channel, sequence (Q12809 whole entry, looked up): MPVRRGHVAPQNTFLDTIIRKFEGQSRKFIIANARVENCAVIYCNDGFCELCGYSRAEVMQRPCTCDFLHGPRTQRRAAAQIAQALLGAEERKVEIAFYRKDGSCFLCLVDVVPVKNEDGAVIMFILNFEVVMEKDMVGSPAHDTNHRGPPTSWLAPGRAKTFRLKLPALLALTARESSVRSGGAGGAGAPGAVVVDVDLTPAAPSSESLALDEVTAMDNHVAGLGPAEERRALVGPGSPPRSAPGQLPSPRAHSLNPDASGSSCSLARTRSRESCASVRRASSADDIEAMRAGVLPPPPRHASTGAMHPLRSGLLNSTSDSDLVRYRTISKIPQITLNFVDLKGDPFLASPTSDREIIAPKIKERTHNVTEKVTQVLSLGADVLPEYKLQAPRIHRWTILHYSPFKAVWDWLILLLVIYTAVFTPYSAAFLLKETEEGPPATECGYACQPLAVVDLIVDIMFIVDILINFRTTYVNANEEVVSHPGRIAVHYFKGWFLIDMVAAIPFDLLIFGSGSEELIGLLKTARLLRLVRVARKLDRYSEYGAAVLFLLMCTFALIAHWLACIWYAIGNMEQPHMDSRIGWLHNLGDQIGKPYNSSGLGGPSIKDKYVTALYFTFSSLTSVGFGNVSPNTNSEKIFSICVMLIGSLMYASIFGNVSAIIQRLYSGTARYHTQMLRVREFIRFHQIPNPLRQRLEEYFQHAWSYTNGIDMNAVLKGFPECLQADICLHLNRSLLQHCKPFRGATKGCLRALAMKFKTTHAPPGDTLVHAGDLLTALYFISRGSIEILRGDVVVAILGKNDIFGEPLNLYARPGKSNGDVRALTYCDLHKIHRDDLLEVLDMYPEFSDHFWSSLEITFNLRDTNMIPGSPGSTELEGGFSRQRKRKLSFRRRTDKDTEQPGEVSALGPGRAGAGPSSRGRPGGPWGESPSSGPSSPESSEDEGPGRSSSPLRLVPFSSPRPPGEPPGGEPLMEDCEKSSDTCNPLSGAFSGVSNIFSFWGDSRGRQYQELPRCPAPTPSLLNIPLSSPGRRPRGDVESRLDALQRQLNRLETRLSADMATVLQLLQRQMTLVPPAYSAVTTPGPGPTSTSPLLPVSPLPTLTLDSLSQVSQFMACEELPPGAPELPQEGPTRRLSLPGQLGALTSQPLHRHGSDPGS
row,Compound,"hERG current change (%, negative = inhibition) at 1uM [%]"
1,NC(=O)NC(Cc1ccccc1)C(=O)O (stereo not shown),14.4
2,COc1ccc(NC(=O)Nc2ccc([N+](=O)[O-])cc2)cn1,8.9
3,COc1ccc(-c2nc3ccccc3c(=O)n2-c2c(C)n(C)n(-c3ccccc3)c2=O)cc1,10.9
4,CCS(=O)(=O)N1CCN(C(=O)COc2ccc(-c3ccccc3)cc2)CC1,-3.84
5,O=C(Cn1cc(S(=O)(=O)Cc2ccccc2)c2ccccc21)Nc1ccccc1,10.1
6,O=C(CN1C(=O)CCSc2ccc(S(=O)(=O)N3CCCC3)cc21)NCc1ccccc1Cl,5.83
7,CC(=O)Nc1ccc(S(=O)(=O)Nc2nnc(C3CCCCC3)s2)cc1,18.2
8,O=c1[nH]c(/C=C/c2cccc3ccccc23)nc2ccccc12,16.1
9,N#C/C(=C(/O)COc1ccccc1)c1nnc2n1CCCCC2,10.7
10,CN(Cc1cccs1)C(=O)CCc1c[nH]c2ccccc12,10.6
11,Cc1ccc(NC(=O)Cn2c(=O)c3cccn3c3ccccc32)c(C)c1,2.66
12,Cc1cc2oc(=O)cc(CN3CCN(S(=O)(=O)/C=C/c4ccccc4)CC3)c2cc1C,14.5
13,Cn1nnnc1SC(C(=O)Nc1ccc(F)cc1)c1ccccc1 (stereo not shown),11.9
14,COc1ccccc1N1CCN(S(=O)(=O)c2cc(-c3cc(C)no3)ccc2C(C)C)CC1,14.5
15,CCOc1ccc(N2C(=O)CC(N3CCc4ccccc43)C2=O)cc1 (stereo not shown),5.06
16,CC(=O)c1ccccc1OCCn1nnc(-c2ccc(C)cc2)n1,-21.2
17,CCOc1ccc(NC(=O)CCNC(=O)N2C[C@H]3C[C@@H](C2)c2cccc(=O)n2C3)cc1,13
18,COc1cccc(C(=O)CSc2nnc(-c3ccco3)n2CC2CCCO2)c1 (stereo not shown),0.587
19,Cc1cccn2c(=O)c3cc(S(=O)(=O)c4ccccc4)c(=N)n(Cc4cccnc4)c3nc12,-3.7
20,COc1ccc(S(=O)(=O)NCCCN2CCOCC2)cc1F,8.18
21,COc1ccc(S(=O)(=O)N(CC(=O)NCc2ccccn2)Cc2ccccc2)cc1,3.47
22,CCOC(=O)N1CCN(S(=O)(=O)c2ccc(C(=O)NNc3nc4c(C)cccc4s3)cc2)CC1,14.7
23,O=C(CSc1nnc(-c2ccc(O)cc2)o1)N1CCOCC1,9.95
24,CC(C)CNC(=O)C1C2C=CC(C2)C1C(=O)O (stereo not shown),18.5
25,COc1ccccc1C1CC(=O)NC(C)=C1C(=O)OCC1CCCO1 (stereo not shown),14.6
26,CC(C)(C)NC(=O)N1CCN(S(=O)(=O)c2ccc3c(c2)CCC3)CC1,8.69
27,COc1ccc(OCC(=O)N(Cc2ccc(C)o2)C2CCS(=O)(=O)C2)cc1 (stereo not shown),-2.17
28,O=C(N=Nc1c(O)[nH]c2ccccc12)c1ccc2c(c1)OCO2,6.77

row,Compound,"hERG current change (%, negative = inhibition) at 1uM [%]"
1,O=C(NC1CCCC1)C(c1ccccc1F)N(C(=O)c1ccco1)C1CCCC1 (stereo not shown),2.59
2,O=C(Nc1cccnc1)c1ccc(NS(=O)(=O)c2cc([N+](=O)[O-])ccc2Cl)cc1,12.8
3,Cc1cccc(-c2nc3c(c(SCC(N)=O)n2)CCCC3)c1,9.62
4,COc1cccc(NC(=O)CN(C)C(=O)CCNC(=O)c2ccc(Br)cc2)c1,-3.64
5,Cc1ccc(S(=O)(=O)c2cc(Nc3ccccc3)ccc2O)cc1,11
6,COc1ccc(NC2CCCN(C(=O)CSc3ccccc3)C2)cc1 (stereo not shown),8.31
7,O=C(NCC1CCCO1)C(c1cccs1)N(Cc1ccccc1)C(=O)c1ccc(-c2ccccc2)[nH]1 (stereo not shown),3.27
8,O=C(NCCSCc1c(F)cccc1Cl)c1ccc(CN2CCOCC2)cc1,10.1
9,Cc1c(NC(=O)NC(=O)c2ccc(F)cc2)c(=O)n(-c2ccccc2)n1C,1.88
10,COc1cc(N)c(Cl)cc1C(=O)OCC(=O)N(C)C1CCCCC1,8.82
11,COCCNC(=O)/C(C#N)=C/c1ccc2c(c1)OCO2,17.1
12,COc1ccc(CN=Cc2[nH]c3ccc(Br)c(Cl)c3c2O)cc1,-1.23
13,COc1ccc(-c2nc3ccccc3c(=O)n2CCN2CCOCC2)cc1,10.1
14,COc1cc(CNc2ccc(C)c(C)c2)cc(OC)c1OC,8.04
15,COc1ccccc1/C=C1\SC(=S)N(N2C(=O)CCCC2=O)C1=O,7.97
16,Cc1cc(C)c(C#N)c(N2CCSCC2)n1,11.9
17,O=C(c1ccc(C(F)(F)F)cc1)C1CCCN(C(=O)c2csnn2)C1 (stereo not shown),9.85
18,O=C(Cc1ccc(F)cc1)Nc1cccc(-c2ccc3nncn3n2)c1,-1.56
19,O=C(NC(Cc1ccccc1)C(=O)O)/C(=C\c1ccc(Cl)cc1)NC(=O)c1ccccc1 (stereo not shown),22
20,COc1ccc(-c2nc3ccccn3c2NC2CCCCC2)cc1SC1CCCCC1.O=C(O)C(F)(F)F,11.7
21,Cc1c(C)c2c(C)nn(-c3ccccc3)c2[nH]c1=O,13.9
22,Cc1ccc(C)c(N2CCN(C(=O)c3csc4ccccc34)CC2)c1,-11.3
23,CCc1ccc(NC(=O)C/C(C)=N/NC(=O)COc2ccccc2C)cc1,-13.7
24,CCOC(=O)Nc1ccc2c(CN(C)Cc3ccc(F)cc3)cc(=O)oc2c1,7.02
25,COc1ccccc1N1CCN(C(=O)c2cc(C3CC3)on2)CC1,-9.56
26,Cc1c(C)c2ccc(OCC(=O)N3CCC[C@@H]3C(=O)O)c(C)c2oc1=O,15.7
27,Cc1ccc(C(=O)C2=C(O)C(=O)N(Cc3cccnc3)C2c2ccc(Cl)cc2)o1 (stereo not shown),14.8
